# Measured values reported in the supplement of paper PMC8728848.
# Some of the results follow.
# What was measured:
# Assay in all cases: glycan array binding signal (z-score within array); higher = stronger binding
# Conditions in all cases: glycan notation: IUPAC condensed, linker removed
# [1] = biological target: Neu5Ac(a2-6)Gal(b1-4)GlcNAc(b1-3)Gal(b1-4)GlcNAc(b1-3)Gal(b1-4)GlcNAc(b1-2)Man(a1-3)[Neu5Ac(a2-6)Gal(b1-4)GlcNAc(b1-3)Gal(b1-4)GlcNAc(b1-3)Gal(b1-4)GlcNAc(b1-2)Man(a1-6)]GalNAc
# Summary of the method: (§1)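 From the Consortium for Functional Glycomics database, 3228 arrays were curated, keeping only those whose protein sequence was available. Binding is given as a within-array Z-score averaged across arrays sharing a protein sequence and across linkers. Negative Z-scores can be read as non-binding.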
# [2] = biological target: Neu5Ac(a2-6)Gal(b1-4)GlcNAc(b1-3)Gal(b1-4)GlcNAc(b1-3)GalNAc
# Summary of the method: as §1
# [3] = biological target: Neu5Ac(a2-6)Gal(b1-4)GlcNAc(b1-3)Gal(b1-4)GlcNAc(b1-3)[Neu5Ac(a2-6)Gal(b1-4)GlcNAc(b1-3)Gal(b1-4)GlcNAc(b1-6)]GalNAc
# Summary of the method: as §1
# [4] = biological target: Neu5Ac(a2-6)Gal(b1-4)GlcNAc(b1-3)Gal(b1-4)GlcNAc(b1-6)[Gal(b1-3)]GalNAc
# Summary of the method: as §1
# [5] = biological target: Neu5Ac(a2-6)Gal(b1-4)GlcNAc(b1-3)Gal(b1-4)[Fuc(a1-3)]GlcNAc(b1-3)Gal(b1-4)[Fuc(a1-3)]GlcNAc
# Summary of the method: as §1
# [6] = biological target: Neu5Ac(a2-6)Gal(b1-4)GlcNAc(b1-3)GalNAc
# Summary of the method: as §1
# [7] = biological target: Neu5Ac(a2-6)Gal(b1-4)GlcNAc(b1-3)[Neu5Ac(a2-6)Gal(b1-4)GlcNAc(b1-6)]GalNAc
# Summary of the method: as §1
# [8] = biological target: Neu5Ac(a2-6)Gal(b1-4)GlcNAc(b1-6)GalNAc
# Summary of the method: as §1
# [9] = biological target: Neu5Ac(a2-6)Gal(b1-4)GlcNAc(b1-6)[Gal(b1-3)GlcNAc(b1-3)]Gal(b1-4)Glc
# Summary of the method: as §1
# [10] = biological target: Neu5Ac(a2-6)Gal(b1-4)GlcNAc(b1-6)[Gal(b1-3)]GalNAc
# Summary of the method: as §1
# [11] = biological target: Neu5Ac(a2-6)Gal(b1-4)GlcNAc6S
# Summary of the method: as §1
# [12] = biological target: Neu5Ac(a2-6)GalNAc
# Summary of the method: as §1
# [13] = biological target: Neu5Ac(a2-6)GalNAc(b1-4)GlcNAc
# Summary of the method: as §1
# [14] = biological target: Neu5Ac(a2-6)GalNAc(b1-4)GlcNAc6S
# Summary of the method: as §1
# [15] = biological target: Neu5Ac(a2-6)GlcNAc(b1-4)GlcNAc
# Summary of the method: as §1
# [16] = biological target: Neu5Ac(a2-6)GlcNAc(b1-4)GlcNAc(b1-4)GlcNAc
# Summary of the method: as §1
# [17] = biological target: Neu5Ac(a2-8)Neu5Ac
# Summary of the method: as §1
# [18] = biological target: Neu5Ac(a2-8)Neu5Ac(a2-3)Gal(b1-3)GalNAc(b1-4)[Neu5Ac(a2-3)]Gal(b1-4)Glc
# Summary of the method: as §1
# [19] = biological target: Neu5Ac(a2-8)Neu5Ac(a2-3)Gal(b1-3)GalNAc(b1-4)[Neu5Ac(a2-8)Neu5Ac(a2-3)]Gal(b1-4)Glc
# Summary of the method: as §1
# [20] = biological target: Neu5Ac(a2-8)Neu5Ac(a2-3)Gal(b1-4)Glc
# Summary of the method: as §1
# [21] = biological target: Neu5Ac(a2-8)Neu5Ac(a2-3)Gal(b1-4)GlcNAc
# Summary of the method: as §1
# [22] = biological target: Neu5Ac(a2-8)Neu5Ac(a2-3)[Gal(b1-3)GalNAc(b1-4)]Gal(b1-4)Glc
# Summary of the method: as §1
# [23] = biological target: Neu5Ac(a2-8)Neu5Ac(a2-3)[GalNAc(b1-4)]Gal(b1-4)Glc
# Summary of the method: as §1
# [24] = biological target: Neu5Ac(a2-8)Neu5Ac(a2-8)Neu5Ac
# Summary of the method: as §1
# [25] = biological target: Neu5Ac(a2-8)Neu5Ac(a2-8)Neu5Ac(a2-3)Gal(b1-4)Glc
# Summary of the method: as §1
# [26] = biological target: Neu5Ac(a2-8)Neu5Ac(a2-8)Neu5Ac(a2-3)[Gal(b1-3)GalNAc(b1-4)]Gal(b1-4)Glc
# Summary of the method: as §1
# [27] = biological target: Neu5Ac(a2-8)Neu5Ac(a2-8)Neu5Ac(a2-3)[GalNAc(b1-4)]Gal(b1-4)Glc
# Summary of the method: as §1
# [28] = biological target: Neu5Ac(a2-8)Neu5Ac(a2-8)Neu5Ac(a2-8)Neu5Ac(a2-3)[GalNAc(b1-4)]Gal(b1-4)Glc
# Summary of the method: as §1
# [29] = biological target: Neu5Ac(a2-8)Neu5Gc(a2-3)Gal(b1-4)GlcNAc
# Summary of the method: as §1
# [30] = biological target: Neu5Ac(b2-6)Gal(b1-4)GlcNAc
# Summary of the method: as §1
# [31] = biological target: Neu5Ac(b2-6)GalNAc
# Summary of the method: as §1
# [32] = biological target: Neu5Ac9Ac(a2-3)Gal(b1-3)GlcNAc
# Summary of the method: as §1
# [33] = biological target: Neu5Ac9Ac(a2-3)Gal(b1-4)GlcNAc
# Summary of the method: as §1
# [34] = biological target: Neu5Ac9Ac(a2-6)Gal(b1-4)GlcNAc
# Summary of the method: as §1
# [35] = biological target: Neu5Gc(a2-3)Gal(b1-3)GlcNAc
# Summary of the method: as §1
# [36] = biological target: Neu5Gc(a2-3)Gal(b1-3)[Fuc(a1-4)]GlcNAc
# Summary of the method: as §1
# [37] = biological target: Neu5Gc(a2-3)Gal(b1-4)Glc
# Summary of the method: as §1
# [38] = biological target: Neu5Gc(a2-3)Gal(b1-4)GlcNAc
# Summary of the method: as §1
# [39] = biological target: Neu5Gc(a2-3)Gal(b1-4)GlcNAc(b1-3)Gal(b1-4)GlcNAc(b1-2)Man(a1-3)[Neu5Gc(a2-3)Gal(b1-4)GlcNAc(b1-3)Gal(b1-4)GlcNAc(b1-2)Man(a1-6)]Man(b1-4)GlcNAc(b1-4)GlcNAc
# Summary of the method: as §1
# [40] = biological target: Neu5Gc(a2-3)Gal(b1-4)[Fuc(a1-3)]GlcNAc
# Summary of the method: as §1
# [41] = biological target: Neu5Gc(a2-6)Gal(b1-4)GlcNAc
# Summary of the method: as §1
# [42] = biological target: Neu5Gc(a2-6)GalNAc
# Summary of the method: as §1
# [43] = biological target: Neu5Gc(a2-8)Neu5Ac(a2-3)Gal(b1-4)GlcNAc
# Summary of the method: as §1
# [44] = biological target: Neu5Gc(a2-8)Neu5Gc(a2-3)Gal(b1-4)GlcNAc
# Summary of the method: as §1
# [45] = biological target: Neu5Gc(a2-8)Neu5Gc(a2-3)Gal(b1-4)GlcNAc(b1-3)Gal(b1-4)GlcNAc
# Summary of the method: as §1
# [46] = biological target: Neu5Gc(a2-8)Neu5Gc(a2-6)Gal(b1-4)GlcNAc
# Summary of the method: as §1
# [47] = biological target: Neu5Gc(b2-6)Gal(b1-4)GlcNAc
# Summary of the method: as §1
binder,measurement,setting,value
"CFEM-CGl (Candida glabrata), Q6FRS0 (protein) VLATPPACLLACVAQVSKQSSQCHTLNQVGCFCENENTAIKNCLDSICPNGNSDAAYTAFKNSCGDVGKAVASV",glycan array binding signal (z-score),[1],4.31
same,glycan array binding signal (z-score),[2],-0.312
same,glycan array binding signal (z-score),[3],-0.204
same,glycan array binding signal (z-score),[4],0.714
same,glycan array binding signal (z-score),[5],-0.407
same,glycan array binding signal (z-score),[6],-0.36
same,glycan array binding signal (z-score),[7],-0.174
same,glycan array binding signal (z-score),[8],0.305
same,glycan array binding signal (z-score),[9],-0.493
same,glycan array binding signal (z-score),[10],0.876
same,glycan array binding signal (z-score),[11],-0.102
same,glycan array binding signal (z-score),[12],-0.255
same,glycan array binding signal (z-score),[13],0.06
same,glycan array binding signal (z-score),[14],-0.122
same,glycan array binding signal (z-score),[15],-0.451
same,glycan array binding signal (z-score),[16],-0.504
same,glycan array binding signal (z-score),[17],-0.037
same,glycan array binding signal (z-score),[18],-0.142
same,glycan array binding signal (z-score),[19],-0.248
same,glycan array binding signal (z-score),[20],-0.373
same,glycan array binding signal (z-score),[21],-0.527
same,glycan array binding signal (z-score),[22],0.657
same,glycan array binding signal (z-score),[23],-0.151
same,glycan array binding signal (z-score),[24],-0.231
same,glycan array binding signal (z-score),[25],-0.465
same,glycan array binding signal (z-score),[26],-0.372
same,glycan array binding signal (z-score),[27],-0.42
same,glycan array binding signal (z-score),[28],-0.195
same,glycan array binding signal (z-score),[29],-0.396
same,glycan array binding signal (z-score),[30],-0.305
same,glycan array binding signal (z-score),[31],0.161
same,glycan array binding signal (z-score),[32],-0.26
same,glycan array binding signal (z-score),[33],-0.485
same,glycan array binding signal (z-score),[34],-0.421
same,glycan array binding signal (z-score),[35],-0.262
same,glycan array binding signal (z-score),[36],-0.349
same,glycan array binding signal (z-score),[37],-0.036
same,glycan array binding signal (z-score),[38],-0.194
same,glycan array binding signal (z-score),[39],-0.356
same,glycan array binding signal (z-score),[40],-0.096
same,glycan array binding signal (z-score),[41],-0.523
same,glycan array binding signal (z-score),[42],-0.19
same,glycan array binding signal (z-score),[43],-0.424
same,glycan array binding signal (z-score),[44],-0.423
same,glycan array binding signal (z-score),[45],-0.014
same,glycan array binding signal (z-score),[46],-0.359
same,glycan array binding signal (z-score),[47],-0.21
